Measurements taken from US7160888B2, “[1,8]naphthyridin-2-ones and related compounds for the treatment of schizophrenia” (Warner Lambert Company LLC, priority 2003, dated 2007).

Biological target: dopamine D2 receptor (Homo sapiens, UniProt P14416)
Assay: biochemical
Conditions: D2 Ki (nM), 0.4 nM [3H]spiperone, CHO-hD2L membranes

Sequence of UniProt P14416 (P14416 whole entry): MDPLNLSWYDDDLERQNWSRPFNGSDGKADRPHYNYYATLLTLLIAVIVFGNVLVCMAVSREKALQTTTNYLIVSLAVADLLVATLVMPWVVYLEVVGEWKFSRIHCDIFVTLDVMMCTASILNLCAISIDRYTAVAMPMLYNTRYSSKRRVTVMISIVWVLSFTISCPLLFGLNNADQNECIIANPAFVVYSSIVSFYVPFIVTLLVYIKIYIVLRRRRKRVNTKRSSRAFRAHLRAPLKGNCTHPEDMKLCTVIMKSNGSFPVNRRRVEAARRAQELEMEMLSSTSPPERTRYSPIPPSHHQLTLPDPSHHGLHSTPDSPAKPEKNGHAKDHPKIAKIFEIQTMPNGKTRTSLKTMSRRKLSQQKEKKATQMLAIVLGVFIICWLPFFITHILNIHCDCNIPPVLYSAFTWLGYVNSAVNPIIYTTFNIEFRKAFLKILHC

Row | SMILES | Ki (Table 1) [nM] | Ki (Table 2) [nM]
1 | O=C1CCc2ccc(CCCCCN3CCN(c4ccc(F)cc4Cl)CC3)nc2N1 [Example C14, 7-{5-[4-(2-Chloro-4-fluoro-phenyl)-piperazin-1-yl]-pentyl}-3,4-dihydro-1H-[1,8]naphthyridin-2-one] | 65.5 | 
2 | Cc1c(F)ccc(N2CCN(CCCCCc3ccc4c(n3)NC(=O)CC4)CC2)c1Cl [Example C15, 7-{5-[4-(2-Chloro-4-fluoro-3-methyl-phenyl)-piperazin-1-yl]-pentyl}-3,4-dihydro-1H-[1,8]naphthyridin-2-one] | 32 | 
3 | Cc1cccc(N2CCN(CCCCCc3ccc4c(n3)NC(=O)CC4)CC2)n1 [Example C16, 7-{5-[4-(6-Methyl-pyridin-2-yl)-piperazin-1-yl]-pentyl}-3,4-dihydro-1H-[1,8]naphthyridin-2-one] | 46.7 | 
4 | CCc1cccc(N2CCN(CCCCCc3ccc4c(n3)NC(=O)CC4)CC2)n1 [Example C17, 7-{5-[4-(6-Ethyl-pyridin-2-yl)-piperazin-1-yl]-pentyl}-3,4-dihydro-1H-[1,8]naphthyridin-2-one] | 20.5 | 
5 | O=C1CCc2ccc(CCCCCN3CCN(c4cccc(C5CC5)n4)CC3)nc2N1 [Example C18, 7-{5-[4-(6-Cyclopropyl-pyridin-2-yl)-piperazin-1-yl]-pentyl}-3,4-dihydro-1H-[1,8]naphthyridin-2-one] | 7.1 | 
6 | Cc1cc(C)nc(N2CCN(CCCCCc3ccc4c(n3)NC(=O)CC4)CC2)c1 [Example C19, 7-{5-[4-(4,6-Dimethyl-pyridin-2-yl)-piperazin-1-yl]-pentyl}-3,4-dihydro-1H-[1,8]naphthyridin-2-one] | 10.4 | 
7 | Cc1cc(=O)[nH]c2nc(OCCCCN3CCN(c4cccc(Cl)c4Cl)CC3)ccc12 [Example D1, 7-{4-[4-(2,3-Dichloro-phenyl)-piperazin-1-yl]-butoxy}-4-methyl-1H-[1,8]naphthyridin-2-one] | 1 | 
8 | O=C1CCc2cc(F)c(OCCCCN3CCN(c4cccc5cccnc45)CC3)nc2N1 [Example D1′, 6-Fluoro-7-[4-(4-quinolin-8-yl-piperazin-1-yl)-butoxy]-3,4-dihydro-1H-[1,8]naphthyridin-2-one] |  | 2
9 | O=C1CCc2cc(F)c(OCCCCN3CCN(c4cccc5cnccc45)CC3)nc2N1 [Example D2′, 6-Fluoro-7-[4-(4-isoquinolin-5-yl-piperazin-1-yl)-butoxy]-3,4-dihydro-1H-[1,8]naphthyridin-2-one] |  | 5
10 | Cc1cc(=O)[nH]c2nc(CCCCCN3CCN(c4cccc(Cl)c4Cl)CC3)ccc12 [Example D3, 7-{5-[4-(2,3-Dichloro-phenyl)-piperazin-1-yl]-pentyl}-4-methyl-1H-[1,8]naphthyridin-2-one] | 4.5 | 
11 | Cc1cc2ccc(CCCCCN3CCN(c4cccc(Cl)c4Cl)CC3)nc2[nH]c1=O [Example D5, 7-{5-[4-(2,3-Dichloro-phenyl)-piperazin-1-yl]-pentyl}-3-methyl-1H-[1,8]naphthyridin-2-one] | 1.8 | 
12 | Cc1c(C)c2ccc(OCCCCN3CCN(c4cccc(Cl)c4Cl)CC3)nc2[nH]c1=O [Example D7, 7-{4-[4-(2,3-Dichloro-phenyl)-piperazin-1-yl]-butoxy}-3,4-dimethyl-1H-[1,8]naphthyridin-2-one] | 3 | 
13 | Cc1c(C)c2ccc(CCCCCN3CCN(c4cccc(Cl)c4Cl)CC3)nc2[nH]c1=O [Example D8, 7-{5-[4-(2,3-Dichloro-phenyl)-piperazin-1-yl]-pentyl}-3,4-dimethyl-1H-[1,8]naphthyridin-2-one] | 2.2 | 
14 | O=c1[nH]c2nc(OCCCCN3CCN(c4cccc(Cl)c4Cl)CC3)ccc2cc1F [Example D9, 7-{4-[4-(2,3-Dichloro-phenyl)-piperazin-1-yl]-butoxy}-3-fluoro-1H-[1,8]naphthyridin-2-one] | 1 | 
15 | O=c1[nH]c2nc(OCCCCN3CCN(c4cccc5ccccc45)CC3)ccc2cc1F [Example D10, 3-Fluoro-7-[4-(4-naphthalen-1-yl-piperazin-1-yl)-butoxy]-1H-[1,8]naphthyridin-2-one] | 0.9 | 
16 | O=c1[nH]c2nc(OCCCCN3CCN(c4cccc5ccccc45)CC3)ccc2cc1CC(F)(F)F [Example D11, 7-[4-(4-Naphthalen-1-yl-piperazin-1-yl)-butoxy]-3-(2,2,2-trifluoro-ethyl)-1H-[1,8]naphthyridin-2-one] | 1.4 | 
17 | CC1(C)Cc2ccc(CCCCCN3CCN(c4cccc(Cl)c4Cl)CC3)nc2NC1=O [Example D12, 7-{5-[4-(2,3-Dichloro-phenyl)-piperazin-1-yl]-pentyl}-3,3-dimethyl-3,4-dihydro-1H-[1,8]naphthyridin-2-one] | 5 | 
18 | CC1(C)Cc2ccc(OCCCCN3CCN(c4cccc(Cl)c4Cl)CC3)nc2NC1=O [Example D13, 7-{4-[4-(2,3-Dichloro-phenyl)-piperazin-1-yl]-butoxy}-3,3-dimethyl-3,4-dihydro-1H-[1,8]naphthyridin-2-one] | 2.8 | 
19 | CC1(C)C(=O)Nc2nc(OCCCCN3CCN(c4cccc(Cl)c4Cl)CC3)ccc2C1=O [Example D14, 7-{4-[4-(2,3-Dichloro-phenyl)-piperazin-1-yl]-butoxy}-3,3-dimethyl-1H-[1,8]naphthyridine-2,4-dione] | 0.4 | 

Row | SMILES | Ki (Table 1) [nM] | Ki (Table 2) [nM]
20 | CC1(C)C(=O)Nc2nc(OCCCCN3CCN(c4cccc(Cl)c4Cl)CC3)ccc2C1O (stereo not shown) [Example D15, 7-{4-[4-(2,3-Dichloro-phenyl)-piperazin-1-yl]-butoxy}-4-hydroxy-3,3-dimethyl-3,4-dihydro-1H-[1,8]naphthyridin-2-one] | 0.6 | 
21 | CC1(C)CC(=O)Nc2nc(OCCCCN3CCN(c4cccc5ccccc45)CC3)ccc21 [Example D16, 4,4-Dimethyl-7-[4-(4-naphthalen-1-yl-piperazin-1-yl)-butoxy]-3,4-dihydro-1H-[1,8]naphthyridin-2-one] | 3 | 
22 | CC1(C)CC(=O)Nc2nc(OCCCCN3CCN(c4cccc(Cl)c4Cl)CC3)ccc21 [Example D17, 7-{4-[4-(2,3-Dichloro-phenyl)-piperazin-1-yl]-butoxy}-4,4-dimethyl-3,4-dihydro-1H-[1,8]naphthyridin-2-one] | 3.9 | 
23 | CC1(C)CC(=O)Nc2nc(OCCCCN3CCN(c4cccc5c4CCCC5)CC3)ccc21 [Example D18, 4,4-Dimethyl-7-{4-[4-(5,6,7,8-tetrahydro-naphthalen-1-yl)-piperazin-1-yl]-butoxy}-3,4-dihydro-1H-[1,8]naphthyridin-2-one] | 4.7 | 
24 | CC1(C)CC(=O)Nc2nc(OCCCCN3CCN(c4cccc5c4CCC5)CC3)ccc21 [Example D19, 7-[4-(4-Indan-4-yl-piperazin-1-yl)-butoxy]-4,4-dimethyl-3,4-dihydro-1H-[1,8]naphthyridin-2-one] | 3.2 | 
25 | Cc1c(Cl)cccc1N1CCN(CCCCOc2ccc3c(n2)NC(=O)CC3(C)C)CC1 [Example D21, 7-{4-[4-(3-Chloro-2-methyl-phenyl)-piperazin-1-yl]-butoxy}-4,4-dimethyl-3,4-dihydro-1H-[1,8]naphthyridin-2-one] | 12.5 | 
26 | CC1(C)CC(=O)Nc2nc(OCCCCN3CCN(c4cccc(C5CC5)n4)CC3)ccc21 [Example D22, 7-{4-[4-(6-Cyclopropyl-pyridin-2-yl)-piperazin-1-yl]-butoxy}-4,4-dimethyl-3,4-dihydro-1H-[1,8]naphthyridin-2-one] | 5.2 | 
27 | CCc1ccccc1N1CCN(CCCCOc2ccc3c(n2)NC(=O)CC3(C)C)CC1 [Example D23, 7-{4-[4-(2-Ethyl-phenyl)-piperazin-1-yl]-butoxy}-4,4-dimethyl-3,4-dihydro-1H-[1,8]naphthyridin-2-one] | 6.9 | 
28 | CC(C)COc1ccccc1N1CCN(CCCCOc2ccc3c(n2)NC(=O)CC3(C)C)CC1 [Example D24, 7-{4-[4-(2-Isobutoxy-phenyl)-piperazin-1-yl]-butoxy}-4,4-dimethyl-3,4-dihydro-1H-[1,8]naphthyridin-2-one] | 13.4 | 
29 | CC(C)Oc1ccccc1N1CCN(CCCCOc2ccc3c(n2)NC(=O)CC3(C)C)CC1 [Example D25, 7-{4-[4-(2-Isopropoxy-phenyl)-piperazin-1-yl]-butoxy}-4,4-dimethyl-3,4-dihydro-1H-[1,8]naphthyridin-2-one] | 1.6 | 
30 | O=c1ncc2ccc(OCCCCN3CCN(c4cccc5c4OCCC5)CC3)nc2[nH]1 [Example E1′, 7-[4-(4-Chroman-8-yl-piperazin-1-yl)-butoxy]-1H-pyrido[2,3-d]pyrimidin-2-one] |  | 1
31 | Cc1cc2c(nc1OCCCCN1CCN(c3cccc4ccccc34)CC1)NC(=O)CC2 [Example E2, 6-Methyl-7-[4-(4-naphthalen-1-yl-piperazin-1-yl)-butoxy]-3,4-dihydro-1H-[1,8]naphthyridin-2-one] | 1.3 | 
32 | O=C1NCc2ccc(OCCCCN3CCN(c4cccc5c4OCCC5)CC3)nc2N1 [Example E2′, 7-[4-(4-Chroman-8-yl-piperazin-1-yl)-butoxy]-3,4-dihydro-1H-pyrido[2,3-d]pyrimidin-2-one] |  | 0.5
33 | O=C1CCc2cc(F)c(OCCCCN3CCN(c4cccc(Cl)c4Cl)CC3)nc2N1 [Example E3, 7-{4-[4-(2,3-Dichloro-phenyl)-piperazin-1-yl]-butoxy}-6-fluoro-3,4-dihydro-1H-[1,8]naphthyridin-2-one] | 1 | 
34 | O=C1NCc2ccc(OCCCCN3CCN(c4cccc5c4OCC5)CC3)nc2N1 [Example E3′, 7-{4-[4-(2,3-Dihydro-benzofuran-7-yl)-piperazin-1-yl]-butoxy}-3,4-dihydro-1H-pyrido[2,3-d]pyrimidin-2-one] |  | 0.7
35 | O=C1CCc2cc(F)c(OCCCCN3CCN(c4cccc5ccccc45)CC3)nc2N1 [Example E4, 6-Fluoro-7-[4-(4-naphthalen-1-yl-piperazin-1-yl)-butoxy]-3,4-dihydro-1H-[1,8]naphthyridin-2-one] | 2.2 | 
36 | O=C1NCc2ccc(OCCCCN3CCN(c4cccc5c4OCCCO5)CC3)nc2N1 [Example E4′, 7-{4-[4-(3,4-Dihydro-2H-benzo[b][1,4]dioxepin-6-yl)-piperazin-1-yl]-butoxy}-3,4-dihydro-1H-pyrido[2,3-d]pyrimidin-2-one] |  | 0.4
37 | O=C1CCc2cc(Cl)c(OCCCCN3CCN(c4cccc5ccccc45)CC3)nc2N1 [Example E6, 6-Chloro-7-[4-(4-naphthalen-1-yl-piperazin-1-yl)-butoxy]-3,4-dihydro-1H-[1,8]naphthyridin-2-one] | 3.5 | 
